Out of some 420,000 compounds screened, about 64,000 (15%) were called active. The shares of active, inactive and inconclusive entries below differ from those in the screen. Calls come from the whole dose curve; as a rule, active = well fitted inhibition curve with a large enough effect; inconclusive = small, poorly fitted or top-dose-only effect; inactive = flat fitted curve, though single readings scatter. Potencies of inconclusive entries are left out as doubtful fits.
assay: qHTS for Inhibitors of human tyrosyl-DNA phosphodiesterase 1 (TDP1): qHTS in cells in absence of CPT; conditions: DT40 Tdp1-/- hTDP1 cells, no CPT, ATP luminescence, 48 h; activity change, negative = growth inhibition: at 46.2 µM (top of the series) unless noted; note: nearly all actives have a fitted effect of over 55% in size
Method in brief: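 Camptothecin absent (DMSO only). Human TDP1-complemented DT40 knockout cells, 400 cells/well, 37 °C for minimum 48 hr; ATP measured via CellTiter-Glo, 30 min dark incubation, luminescence.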
% is set by controls: 0 for no effect and ±100 for the full control effect; potency is the fitted concentration of half-maximal effect; tags give direction and shape of the fitted curve.

Row | Structure (SMILES) | Potency | activity change, negative = growth inhibition
1 | Cc1cc(C)cc(NC(=O)CSc2nc(=O)n(CCCN3CCOCC3)c3c2CCCC3)c1 | inconclusive [inhibitor, single point] | –
2 | COc1cccc(Cn2cnc3c(NS(=O)(=O)c4cc(Cl)ccc4Cl)c(C)c(C)cc32)c1 | inconclusive [inhibitor, partial curve] | –
3 | COc1ccccc1CNc1nc(-c2ccco2)nn1S(=O)(=O)c1ccc2ccccc2c1 | inconclusive [inhibitor, single point] | –
4 | Cc1ccc(-c2nn(-c3ccccc3)cc2C=C2SC(=S)N(CCS(=O)(=O)O)C2=O)cc1 | – | inconclusive: -33.9% [inhibitor]
5 | CCC1=Nc2cc(C(=O)NCCCOC)ccc2Sc2ccc(Br)cc21 | active: 1.3 µM | –
6 | O=[N+]([O-])c1ccc(-c2cn3ccccc3n2)cc1 | inconclusive [inhibitor, partial curve] | –
7 | CCCCOC(=O)c1sc2nc(N3CCOCC3)c3c(c2c1N)CC(C)(C)OC3 | – | inactive: -11.5%
8 | CC1(C)C(=Cc2ccccc2)C(=O)c2ccccc21 | inconclusive [inhibitor, partial curve] | –
9 | CCCCc1ccc(NC(=S)NCCc2ccc(F)cc2)cc1 | inconclusive [inhibitor, single point] | –
10 | O=C(c1cc2nc(-c3ccccc3)cc(-c3ccccc3)n2n1)N1CCCC1 | inconclusive [inhibitor, single point] | –
11 | Cc1ccc(SCCNC(=O)CN(c2ccccc2)S(=O)(=O)N(C)C)cc1 | inconclusive [inhibitor, single point] | –
12 | CCN(CC)CC(C)CNC(=O)C1(O)c2ccccc2NC(=O)N1c1ccc(Cl)c(Cl)c1 (centres undefined) | – | inactive: 2.95%
13 | c1ccc(-c2ccccc2OCCN2CCCCC2)cc1 | inconclusive [inhibitor, single point] | –
14 | Cc1ccc(C(=O)Nc2nnc(-c3ccncc3)s2)o1 | – | inactive: -6.33%
15 | COc1ccc2nc(SCC(=O)NC3CCCC3)c(C)cc2c1 | active: 16.4 µM | –
16 | CNC(=O)C1CCC(Cn2c(=O)c3sccc3n(CC(=O)NCc3ccccc3)c2=O)CC1 (centres undefined) | inconclusive [inhibitor, single point] | –
17 | NC(=O)c1ncn([C@@H]2O[C@H](CNCc3cc(Br)ccc3OCc3ccccc3)[C@@H](O)[C@H]2O)n1 | inconclusive [inhibitor, full curve, poor fit] | –
18 | CC1CCCC(C)N1C(=O)/C=C/c1ccc(S(=O)(=O)N2CCOCC2)cc1 (centres undefined) | inconclusive [inhibitor, single point] | –
19 | CCNc1ncc2nc(-c3ccccc3)c(=O)n(CCOC)c2n1 | – | inactive: -15.1%
20 | Cc1ccccc1C(=O)Nc1sc2c(c1C(=O)NCc1ccco1)CCC(C(C)(C)C)C2 (centres undefined) | inconclusive [inhibitor, single point] | –
21 | O=C1N/C(=N\N=C\c2ccco2)SC1Cc1ccc(F)cc1 (centres undefined) | – | inactive: -17.3%
22 | CC(C)C(C(=O)NCc1ccco1)N(C(=O)CNS(=O)(=O)c1ccc(Cl)cc1)C1CCCC1 (centres undefined) | inconclusive [inhibitor, partial curve, poor fit] | –
23 | CCOC(=O)n1c(=O)n(C)c2ccc(Br)cc21 | inconclusive [inhibitor, single point] | –

Row | Structure (SMILES) | Potency | activity change, negative = growth inhibition
24 | CC1CCC(C(=O)NC(C(=O)OCC(=O)c2ccccc2)C(C)C)CC1 (centres undefined) | active: 18.4 µM | –
25 | CN1CCc2c(sc(NC(=O)Cc3ccccc3)c2C(N)=O)C1 | – | inactive: -2.14%
26 | COc1cccc(CNC(=S)Nc2cc(OC)ccc2OC)c1 | – | inactive: -27.6%
27 | COc1ccc(-c2c(C(=O)c3ccccc3)[nH]c(N)c2C(=O)NC2CC2)cc1OC | inconclusive [inhibitor, single point] | –
28 | Cc1cc(C)c(S(=O)(=O)NCC(c2ccc3c(c2)OCO3)N2CCOCC2)c(C)c1 (centres undefined) | – | inconclusive: -31.4% [inhibitor]
29 | CCOC(=O)C1=CCC(c2ccccc2C)N(S(=O)(=O)c2ccc(C)cc2)C1 (centres undefined) | active: 14.6 µM | –
30 | O=C(/C=C/c1ccccc1Cl)NNC(=O)c1cccs1 | – | inactive: -16.7%
31 | O=C1/C(=C/N(C(=O)c2ccco2)c2ccc(Cl)cc2)Sc2ccccc21 | active: 16.4 µM | –
32 | CCC(=O)N1CCc2cc(Br)cc(S(=O)(=O)N3CCCC(C(=O)Nc4ccc(C(C)C)cc4)C3)c21 (centres undefined) | inconclusive [inhibitor, partial curve] | –
33 | CCn1ccnc1CN(C)C(=O)c1cc(COc2ccc(-n3cncn3)cc2)on1 | inconclusive [inhibitor, partial curve, poor fit] | –
34 | Cc1cccc(NS(=O)(=O)c2cccc(C(=O)N3CCCC(C(F)(F)F)C3)c2)c1 (centres undefined) | inconclusive [inhibitor, single point] | –
35 | Cc1ccc(NC(=O)c2cc(S(=O)(=O)N(C)C)ccc2N2CCCC2)cc1S(=O)(=O)N(C)C | inconclusive [inhibitor, partial curve, poor fit] | –
36 | CCOc1cc(C(=O)OCc2cc(=O)n3nc(CC)sc3n2)cc(OCC)c1OCC | inconclusive [inhibitor, partial curve] | –
37 | COc1ccc(-c2noc(CCC(=O)N3CCN(c4cc(C)ccc4C)CC3)n2)cc1 | inconclusive [inhibitor, partial curve, poor fit] | –
38 | CCc1cnc2c(c1SCC(=O)c1ccccc1)c(=O)n(C)c(=O)n2C | inconclusive [inhibitor, single point] | –
39 | COc1ccc2c3c(ccc2c1)C(=O)/C(=C/O)CC3 | active: 16.4 µM | –
40 | COc1ccc(NC(=O)CN(C)C(=O)CSc2ccc(Br)cc2)cc1 | inconclusive [inhibitor, single point] | –
41 | Cc1ccc(C2=NN(C(=O)CSc3nnnn3C)C(c3ccco3)C2)cc1 (centres undefined) | inconclusive [inhibitor, single point] | –
42 | O=C(CNCc1ccccn1)N1CCc2ccccc2C1 | – | inactive: -10.1%
43 | Cc1cccnc1NC(=O)c1ccc(C(=O)c2ccccc2)cc1 | – | inactive: 3%
44 | CCc1nn(CC(=O)NCCC2=CCCCC2)c(=O)c2cc3cc(F)ccc3n12 | – | inactive: -0.389%
45 | COc1cc(NC(=O)CN2CCN(c3ccccc3O)CC2)c(C)cc1[N+](=O)[O-] | inconclusive [inhibitor, single point] | –
46 | COc1ccc(OCc2nc3ccccc3n2Cc2ccccc2Cl)cc1 | inconclusive [inhibitor, single point] | –

Row | Structure (SMILES) | Potency | activity change, negative = growth inhibition
47 | Cc1cc(C(=O)NCc2cccc(Cl)c2)c2ccccc2n1 | inconclusive [inhibitor, single point] | –
48 | COc1ccc(-c2cn3c(C)c(C(=O)NC(C)(C)C)sc3n2)cc1 | inconclusive [inhibitor, single point] | –
49 | COc1ccc(-c2nnc(SCC(=O)c3[nH]c(C)c(C(C)=O)c3C)o2)cc1 | active: 18.4 µM | –
50 | COc1cc(Cn2nnc3ccccc32)cc(Br)c1O | – | inactive: -15.8%
51 | O=c1c(O)c(-c2ccc(O)c(O)c2)oc2c(OC[C@@H]3O[C@@H](O)[C@@H](O)[C@H](O)[C@H]3O)c(O)cc(O)c12 | – | inactive: -7.87%
52 | CS(=O)(=O)c1ccc2nc(NC(=O)CCNC(=O)c3ccccc3Cl)sc2c1 | inconclusive [inhibitor, single point] | –
53 | CCN(CC)CCn1c2c(c(SCC(=O)Nc3ccccc3Cl)nc1=O)CCCC2 | – | inactive: -13%
54 | CCOc1ccc(N(C)S(=O)(=O)c2ccc3[nH]cc(C(=O)NCCOC)c(=O)c3c2)cc1 | inconclusive [inhibitor, partial curve] | –
55 | NS(=O)(=O)c1ccc(CNC(=O)c2ccc(Cl)c([N+](=O)[O-])c2)cc1 | inconclusive [inhibitor, full curve, poor fit] | –
56 | O=C(COC(=O)c1ccccc1Br)Nc1ccccc1F | inconclusive [inhibitor, full curve] | –
57 | CC(c1ccccc1)N(C)C(=O)CN1CCN(S(=O)(=O)c2ccc3c(c2)OCCCO3)CC1 (centres undefined) | inconclusive [inhibitor, single point] | –
58 | COc1cccc(N2CCN(c3ncnc4c3cnn4-c3ccc(C)cc3C)CC2)c1 | active: 2.59 µM | –
59 | CCN1C(=NCc2cccc(Cl)c2)N[C@@H](c2cccc(F)c2)C(C(=O)OC)=C1C | active: 18.4 µM | –
60 | O=C(c1cccnc1)C1CCCN(Cc2ccc3c(c2)CN(C(=O)c2ccc4[nH]ccc4c2)CCO3)C1 (centres undefined) | inconclusive [inhibitor, single point] | –
61 | NC1=NC(=O)C(Cc2ccc(OC(F)(F)F)cc2)S1 (centres undefined) | – | inactive: 4.73%
62 | Cc1nc(NC(=O)c2cccnc2Cl)sc1C | inconclusive [inhibitor, single point] | –
63 | O=C(NC1CCOCC1)C1CCC(=O)N(Cc2ccc(Cl)cc2)C1 (centres undefined) | – | inactive: -2%
64 | COc1cccc(NS(=O)(=O)c2ccc(S(=O)(=O)N3CCOCC3)cc2)c1 | – | inconclusive: -31.4% [inhibitor]
65 | CN(C)S(=O)(=O)c1cccc(NC(=O)COC(=O)/C=C/c2ccc([N+](=O)[O-])cc2)c1 | inconclusive [inhibitor, single point] | –
66 | CSc1nsc(SCC(=O)Nc2ccccc2)n1 | – | inconclusive: -37% [inhibitor]
67 | CN(C(=S)NC(=O)C12CC3CC(CC(C3)C1)C2)c1ccc(O)cc1 | active: 4.61 µM | –
68 | Cc1c(C(=O)NCc2cccc(Cl)c2)sc2nc3n(c(=O)c12)CCC3 | inconclusive [inhibitor, single point] | –
69 | C=C1C(=O)O[C@H]2C[C@H]1[C@@H](OC(C)=O)C/C(C)=C/CC/C(C)=C\CC[C@]2(C)O | active: 2.91 µM | –
